Measurements as given in the supplement of paper PMC3334620.
In all, about 33,000 sequences were measured (“E-score (-0.5 to 0.5)”: median about -0.035, highest 2% from about 0.35 on). The list shows a part of the results.

molecular target: T1, Pdr3 (UniProt P33200); test: PBM E-score (8-mer binding enrichment) (E-score (-0.5 to 0.5)); higher = stronger / more preferred TF binding; most listed sequences are background and not binding sites; details: protein concentration: 200 nM; construct: GST-full length
T1 sequence: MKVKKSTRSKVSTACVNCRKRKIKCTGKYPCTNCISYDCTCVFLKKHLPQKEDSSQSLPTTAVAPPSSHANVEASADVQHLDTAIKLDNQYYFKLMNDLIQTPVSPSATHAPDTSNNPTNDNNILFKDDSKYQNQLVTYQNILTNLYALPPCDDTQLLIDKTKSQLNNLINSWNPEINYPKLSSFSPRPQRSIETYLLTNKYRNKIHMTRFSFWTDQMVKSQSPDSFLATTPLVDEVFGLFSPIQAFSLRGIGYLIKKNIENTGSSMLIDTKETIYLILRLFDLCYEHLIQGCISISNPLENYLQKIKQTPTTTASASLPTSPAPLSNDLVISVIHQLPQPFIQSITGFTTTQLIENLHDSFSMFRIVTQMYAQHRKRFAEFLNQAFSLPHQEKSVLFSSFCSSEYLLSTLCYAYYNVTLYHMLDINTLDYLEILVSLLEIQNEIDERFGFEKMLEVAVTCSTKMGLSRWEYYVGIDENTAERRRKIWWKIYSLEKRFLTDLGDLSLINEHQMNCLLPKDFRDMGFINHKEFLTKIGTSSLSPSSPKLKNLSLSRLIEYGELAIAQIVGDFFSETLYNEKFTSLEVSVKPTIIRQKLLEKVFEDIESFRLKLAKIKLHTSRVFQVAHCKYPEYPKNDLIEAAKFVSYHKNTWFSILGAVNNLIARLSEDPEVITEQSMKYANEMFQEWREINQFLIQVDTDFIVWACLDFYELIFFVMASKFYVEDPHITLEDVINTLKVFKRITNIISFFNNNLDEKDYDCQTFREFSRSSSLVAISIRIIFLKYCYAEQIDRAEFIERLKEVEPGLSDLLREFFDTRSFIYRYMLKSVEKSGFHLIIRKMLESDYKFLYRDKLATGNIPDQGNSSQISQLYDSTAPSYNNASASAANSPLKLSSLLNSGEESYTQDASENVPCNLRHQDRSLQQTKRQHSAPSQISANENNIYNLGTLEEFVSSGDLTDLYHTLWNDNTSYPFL
Method in brief: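 Using PURExpress in vitro transcription/translation, GST-tagged yeast transcription factors were made in full-length or DNA-binding-domain form. These were applied at about 100-200 nM to double-stranded universal all-10-mer Agilent arrays, and bound protein was detected with fluorescent anti-GST. Scans were normalised with masliner before the Universal PBM Analysis Suite assigned E-scores to ungapped eight-base words pooled with their reverse complements.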

**Q.** How did the “PBM E-score” value turn out when CCGTAAGA was run?
**A.** -0.0199

**Q.** With CTAGAACA as the sequence, how does the “PBM E-score” value read?
**A.** 0.0618

**Q.** For AACCCCGA, which “PBM E-score” value is on record?
**A.** 0.258

**Q.** TGAGCGAA was tested. Which “PBM E-score” value did it give?
**A.** 0.0996

**Q.** For GGGCCCCC, which “PBM E-score” value is on record?
**A.** -0.0273

**Q.** Which “PBM E-score” value does the source give for GGTTTCTA here?
**A.** 0.0811

**Q.** For CTGTGTTA, which “PBM E-score” value is on record?
**A.** -0.0213

**Q.** Which “PBM E-score” value does the source give for ATTATCCA here?
**A.** 0.0658

**Q.** How did the “PBM E-score” value turn out when GATTTAAC was run?
**A.** 0.12

**Q.** For CTACGGCA, which “PBM E-score” value is on record?
**A.** -0.0605

**Q.** Which “PBM E-score” value does the source give for GTCGTTCA here?
**A.** -0.233

**Q.** Which “PBM E-score” value does the source give for CCGGCCAA here?
**A.** 0.255

**Q.** ATAGTTAC was tested. Which “PBM E-score” value did it give?
**A.** -0.0969

**Q.** ACAGGTCG was tested. Which “PBM E-score” value did it give?
**A.** -0.159

**Q.** For AACCAACC, which “PBM E-score” value is on record?
**A.** -0.0636

**Q.** Which “PBM E-score” value does the source give for AATTGTGG here?
**A.** -0.173

**Q.** With ATTAATCG as the sequence, how does the “PBM E-score” value read?
**A.** 0.221

**Q.** How did the “PBM E-score” value turn out when GGCTCTGA was run?
**A.** -0.279

**Q.** For ATCACTTA, which “PBM E-score” value is on record?
**A.** -0.0809

**Q.** For GTGGGGCA, which “PBM E-score” value is on record?
**A.** 0.0349

**Q.** With CTGTAGGC as the sequence, how does the “PBM E-score” value read?
**A.** -0.241

**Q.** For TCTCATCA, which “PBM E-score” value is on record?
**A.** -0.174

**Q.** How did the “PBM E-score” value turn out when CACGTTAC was run?
**A.** -0.187

**Q.** Which “PBM E-score” value does the source give for CTTACTTA here?
**A.** -0.215

**Q.** For CTACACTA, which “PBM E-score” value is on record?
**A.** -0.352

**Q.** For GGTGTAAA, which “PBM E-score” value is on record?
**A.** -0.168

**Q.** Which “PBM E-score” value does the source give for CAGTGGAC here?
**A.** -0.13

**Q.** ATGCCTCA was tested. Which “PBM E-score” value did it give?
**A.** 0.0988

**Q.** CGGAGCAG was tested. Which “PBM E-score” value did it give?
**A.** 0.403

**Q.** For GCTGGCGA, which “PBM E-score” value is on record?
**A.** -0.0303

**Q.** How did the “PBM E-score” value turn out when AGTACGAA was run?
**A.** 0.0707

**Q.** Which “PBM E-score” value does the source give for TAGTCGAA here?
**A.** -0.112

**Q.** CGCCAGCA was tested. Which “PBM E-score” value did it give?
**A.** -0.164

**Q.** For TATATGCA, which “PBM E-score” value is on record?
**A.** -0.0768

**Q.** How did the “PBM E-score” value turn out when GTAGTAGA was run?
**A.** -0.0908

**Q.** With CAACAACA as the sequence, how does the “PBM E-score” value read?
**A.** -0.00717

**Q.** How did the “PBM E-score” value turn out when CCTGCATC was run?
**A.** -0.145

**Q.** How did the “PBM E-score” value turn out when AATGCCAG was run?
**A.** 0.0397

**Q.** Which “PBM E-score” value does the source give for ACGATACT here?
**A.** -0.00704

**Q.** Which “PBM E-score” value does the source give for ATGCGTAG here?
**A.** -0.149

**Q.** With CGGCGAGA as the sequence, how does the “PBM E-score” value read?
**A.** 0.0811

**Q.** How did the “PBM E-score” value turn out when ATGCCACC was run?
**A.** -0.0409

**Q.** Which “PBM E-score” value does the source give for CTACATAC here?
**A.** -0.0963

**Q.** ATTATAGC was tested. Which “PBM E-score” value did it give?
**A.** 0.0979

**Q.** Which “PBM E-score” value does the source give for AGAAGGTG here?
**A.** -0.0405

**Q.** Which “PBM E-score” value does the source give for AGTAGGAG here?
**A.** -0.133

**Q.** For GGGGTAAA, which “PBM E-score” value is on record?
**A.** 0.0581

**Q.** For AGAAAGCT, which “PBM E-score” value is on record?
**A.** -0.00259

**Q.** CCGCTAGA was tested. Which “PBM E-score” value did it give?
**A.** -0.25

**Q.** How did the “PBM E-score” value turn out when GGGACTGA was run?
**A.** -0.171

**Q.** With CTGGATGA as the sequence, how does the “PBM E-score” value read?
**A.** -0.0872

**Q.** How did the “PBM E-score” value turn out when AGGCATCA was run?
**A.** -0.297

**Q.** Which “PBM E-score” value does the source give for CGAAGAGA here?
**A.** 0.00419

**Q.** How did the “PBM E-score” value turn out when ACGCCCAG was run?
**A.** -0.111

**Q.** For CCGCACCC, which “PBM E-score” value is on record?
**A.** 0.244

**Q.** With CGCCGACC as the sequence, how does the “PBM E-score” value read?
**A.** 0.135

**Q.** How did the “PBM E-score” value turn out when TCAGATAA was run?
**A.** -0.0119

**Q.** For AACAGTCC, which “PBM E-score” value is on record?
**A.** -0.277

**Q.** For AGATCGCA, which “PBM E-score” value is on record?
**A.** -0.0373

**Q.** For AGGAAGCG, which “PBM E-score” value is on record?
**A.** 0.0228

**Q.** For ACGGACCT, which “PBM E-score” value is on record?
**A.** 0.275

**Q.** Which “PBM E-score” value does the source give for GGCGGGCA here?
**A.** 0.219

**Q.** How did the “PBM E-score” value turn out when CACGTCTA was run?
**A.** -0.301

**Q.** How did the “PBM E-score” value turn out when GGTTATAC was run?
**A.** -0.151

**Q.** How did the “PBM E-score” value turn out when CGGTGCGC was run?
**A.** 0.264

**Q.** Which “PBM E-score” value does the source give for CACTGCTC here?
**A.** 0.0126

**Q.** How did the “PBM E-score” value turn out when AAGACACT was run?
**A.** -0.0496

**Q.** AGGTCTGG was tested. Which “PBM E-score” value did it give?
**A.** -0.1

**Q.** For ATATACCC, which “PBM E-score” value is on record?
**A.** 0.102

**Q.** How did the “PBM E-score” value turn out when CGCGAGCG was run?
**A.** 0.106

**Q.** ATGAGAAT was tested. Which “PBM E-score” value did it give?
**A.** 0.0389

**Q.** Which “PBM E-score” value does the source give for CTATACAG here?
**A.** -0.198

**Q.** For CGCACGAG, which “PBM E-score” value is on record?
**A.** -0.142

**Q.** For AGTTCTTA, which “PBM E-score” value is on record?
**A.** 0.0005

**Q.** With ACACTCGG as the sequence, how does the “PBM E-score” value read?
**A.** 0.221

**Q.** For GCTGGGAC, which “PBM E-score” value is on record?
**A.** 0.0306

**Q.** With ATACACTG as the sequence, how does the “PBM E-score” value read?
**A.** -0.149

**Q.** GACATACC was tested. Which “PBM E-score” value did it give?
**A.** 0.0363

**Q.** With GCACCCTA as the sequence, how does the “PBM E-score” value read?
**A.** -0.238

**Q.** With AATCCGTA as the sequence, how does the “PBM E-score” value read?
**A.** 0.165

**Q.** How did the “PBM E-score” value turn out when AATCTTTC was run?
**A.** 0.13

**Q.** GTATGAAC was tested. Which “PBM E-score” value did it give?
**A.** 0.18

**Q.** With AATCACTG as the sequence, how does the “PBM E-score” value read?
**A.** 0.0749

**Q.** For CTCATCAA, which “PBM E-score” value is on record?
**A.** -0.035

**Q.** CGATAGCA was tested. Which “PBM E-score” value did it give?
**A.** -0.11

**Q.** ATGATCTA was tested. Which “PBM E-score” value did it give?
**A.** 0.0443
